± gives the standard deviation. The entries are a selection whose mix differs from that of the whole data set.
system: MIWI (PIWIL1) piRISC loaded with L1MC piRNA (30 nt); test: pre-steady-state target cleavage rate (min^-1); MIWI and MILI are mouse PIWI proteins and EfPiwi is from a freshwater sponge; tags in brackets are library labels; higher = faster piRNA-guided slicing of the target; settings: guide: L1MC piRNA 5'p-UAACUAAAUACUAUGCAAGCUGUAGGUCCU; auxiliary factor: 500 nM mouse GTSF1
In short: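 The pre-steady-state cleavage rate came from a burst-and-steady-state fit to pooled data from three Cleave-'n-Seq trials, in which uncleaved targets were sequenced and normalised to depth and to weakly complementary targets. Each reaction held 0.1 nM transcribed, DNA-blocked target RNA library and 1 nM active affinity-purified piRISC carrying one synthetic guide, with or without 500 nM GTSF1 partner protein, in HEPES–potassium acetate buffer at 33 °C for 0–8 or 0–960 min. k3 was capped at 0.0001 min^-1.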

Row | Sequence | pre-steady-state target cleavage rate
1 | UCGCCCUACAGCUUGCAUAGUAUUUAGUUA | 1.32 ± 0.055
2 | UGGACCUACAGCUUGCUUAGUAUUUAGAAA | 0.295 ± 0.035
3 | UCCUCCUACAGCUUGCAUAGUUAUUAGUUA | 0.182 ± 0.018
4 | UGGAGGUACAGCUUGCAUAGUAUUUAGUAA | 0.794 ± 0.065
5 | AGGACCUACAGCUUGCAUAGUAUUUAGUCUA | 0.231 ± 0.041
6 | UCCUGGUACAGCUUGCAUAAUAUUUAGUUA | 0.455 ± 0.076
7 | UCCUGGAUGAGCUUGCGUAGUAUUUAGUUA | 0.898 ± 0.044
8 | AGGACCAACAGCUUGCAUAGUAAUUAGUUA | 0.892 ± 0.05
9 | UCCUGGAUGAGCUUGCAUACUAUUAAGUUA | 0.0488 ± 0.0097
10 | UCCUCCAACAGCUUGCAUAGUAUAUAGUUA | 0.595 ± 0.037
11 | UCGACCUACAGCUUGCAUAGAAUUUAGUUA | 0.526 ± 0.036
12 | UCCAGGUACAGCUUGCAUAGUAUUUAGAAA | 0.261 ± 0.032
13 | UCCUCGUACAGCUUGCAUAGUAUUUACAAA | 0.343 ± 0.038
14 | UCCUGGAUGAGCUUGCUAUGUAUUUAGUUA | 0.00494 ± 0.0027
15 | UCCUGGUACAGCUUGCAUAGUAUAUAGAUA | 0.17 ± 0.044
16 | UCCUGCUACAGCUAGCAUAGUAAUUAGUUA | 0.707 ± 0.061
17 | UCCUGGAUGUCCUUGCAUAGUAUUUCGUUA | 0.0663 ± 0.014
18 | AGGAGCUACAGCUUGCAUAGAAUUUAGUUA | 0.502 ± 0.02
19 | UCCUGGAACAGCUUGCAUAGUAUUUAGUCA | 0.522 ± 0.038
20 | UCCAGGUACAGCUUGCAUAGUAUUUACAAA | 0.211 ± 0.033

Row | Sequence | pre-steady-state target cleavage rate
21 | UCCUGGAUCAGCUUGCAUAGUAUUUAGAAA | 0.424 ± 0.047
22 | AGGACCUACAGCUUGCAAAGUUUUUAGUUA | 0.393 ± 0.021
23 | UCCACCUACAGCUUGCAUAGUAUUAUGUUA | 0.302 ± 0.034
24 | UCCUGGAUCAGCUUGCAUAGUAUUUAGUAA | 0.96 ± 0.047
25 | UCCUCCUACAGCUUGCAUAUUAUUUAGUUA | 1.23 ± 0.04
26 | UCCUGGAUGAGCUUGCAUAGAUUUUAGUUA | 0.00823 ± 0.0035
27 | UCCUGGAUGUCCUUGCAUGGUAUUUAGUUA | 0.0401 ± 0.0081
28 | UGGACCUACACCUUCCAUAGUAUUUAGUUA | 0.012 ± 0.0024
29 | AGGACCUACAUCUUGCAUAGUAUUUAGUUA | 1.39 ± 0.036
30 | UCCUGGAUCAGCUUGGUUAGUAUUUAGUAA | 0.389 ± 0.058
31 | UCCACCUACAGCUUGCAUACUAAUUAGUUA | 0.186 ± 0.025
32 | UCCUGCUACAGCUUGCUUAGUAUUUAGAUA | 0.126 ± 0.022
33 | UCCUGGAUGUACUUGCAUAGUAUUUAGUUA | 0.187 ± 0.015
34 | UCCACCAUCAGCUUGCAUAGUAUUUAGUAA | 0.68 ± 0.029
35 | UCGACCUUCAGCUUGCAUAGUAUUUUGUUA | 0.947 ± 0.053
36 | UCCUGCUACAGCUUGCGUAGUAUUUAGUUA | 0.806 ± 0.044
37 | UCCACCUACCAGCUUGCAUAGUAUUUAGUUA | 0.947 ± 0.051
38 | UCCUGGAUGAGCUUGCAUAGUAUCUUAGUUA | 0.497 ± 0.038
39 | UCCUGGAUUAGCUUGCAUAGUAUUUAGUUA | 0.925 ± 0.034
40 | UCCUGGAACAGCUUGCAUAGUAUUUAGAUA | 0.406 ± 0.042

same assay, conditions: guide: L1MC piRNA 5'p-UAACUAAAUACUAUGCAAGCUGUAGGUCCU; auxiliary factor: none (no GTSF1)

Row | Sequence | pre-steady-state target cleavage rate
41 | UCGCCCUACAGCUUGCAUAGUAUUUAGUUA | 0.0692 ± 0.011
42 | UGGACCUACAGCUUGCUUAGUAUUUAGAAA | 0.00593 ± 0.0019
43 | UCCUCCUACAGCUUGCAUAGUUAUUAGUUA | 0.0115 ± 0.0017
44 | UGGAGGUACAGCUUGCAUAGUAUUUAGUAA | 0.0463 ± 0.0071
45 | AGGACCUACAGCUUGCAUAGUAUUUAGUCUA | 0.0266 ± 0.0083
46 | UCCUGGUACAGCUUGCAUAAUAUUUAGUUA | 0.0236 ± 0.0056
47 | UCCUGGAUGAGCUUGCGUAGUAUUUAGUUA | 0.0334 ± 0.01
48 | AGGACCAACAGCUUGCAUAGUAAUUAGUUA | 0.0463 ± 0.011
49 | UCCUGGAUGAGCUUGCAUACUAUUAAGUUA | 0.00664 ± 0.0032
50 | UCCUCCAACAGCUUGCAUAGUAUAUAGUUA | 0.0355 ± 0.0078
51 | UCGACCUACAGCUUGCAUAGAAUUUAGUUA | 0.022 ± 0.0064
52 | UCCAGGUACAGCUUGCAUAGUAUUUAGAAA | 0.00791 ± 0.002
53 | UCCUCGUACAGCUUGCAUAGUAUUUACAAA | 0.00367 ± 0.002
54 | UCCUGGAUGAGCUUGCUAUGUAUUUAGUUA | 0.00308 ± 0.0029
55 | UCCUGGUACAGCUUGCAUAGUAUAUAGAUA | 0.00548 ± 0.0035
56 | UCCUGCUACAGCUAGCAUAGUAAUUAGUUA | 0.0049 ± 0.0018
57 | UCCUGGAUGUCCUUGCAUAGUAUUUCGUUA | 0.00618 ± 0.0018
58 | AGGAGCUACAGCUUGCAUAGAAUUUAGUUA | 0.0288 ± 0.0086
59 | UCCUGGAACAGCUUGCAUAGUAUUUAGUCA | 0.0457 ± 0.0097
60 | UCCAGGUACAGCUUGCAUAGUAUUUACAAA | 0.00549 ± 0.0022

Row | Sequence | pre-steady-state target cleavage rate
61 | UCCUGGAUCAGCUUGCAUAGUAUUUAGAAA | 0.00625 ± 0.0026
62 | AGGACCUACAGCUUGCAAAGUUUUUAGUUA | 0.0192 ± 0.0049
63 | UCCACCUACAGCUUGCAUAGUAUUAUGUUA | 0.0133 ± 0.0026
64 | UCCUGGAUCAGCUUGCAUAGUAUUUAGUAA | 0.0287 ± 0.0064
65 | UCCUCCUACAGCUUGCAUAUUAUUUAGUUA | 0.0449 ± 0.009
66 | UCCUGGAUGAGCUUGCAUAGAUUUUAGUUA | 0.00284 ± 0.0027
67 | UCCUGGAUGUCCUUGCAUGGUAUUUAGUUA | 0.0121 ± 0.0033
68 | UGGACCUACACCUUCCAUAGUAUUUAGUUA | 0.00279 ± 0.0019
69 | AGGACCUACAUCUUGCAUAGUAUUUAGUUA | 0.0767 ± 0.012
70 | UCCUGGAUCAGCUUGGUUAGUAUUUAGUAA | 0.00325 ± 0.0024
71 | UCCACCUACAGCUUGCAUACUAAUUAGUUA | 0.00741 ± 0.0024
72 | UCCUGCUACAGCUUGCUUAGUAUUUAGAUA | 0.0072 ± 0.0023
73 | UCCUGGAUGUACUUGCAUAGUAUUUAGUUA | 0.026 ± 0.0066
74 | UCCACCAUCAGCUUGCAUAGUAUUUAGUAA | 0.0248 ± 0.0047
75 | UCGACCUUCAGCUUGCAUAGUAUUUUGUUA | 0.0436 ± 0.0073
76 | UCCUGCUACAGCUUGCGUAGUAUUUAGUUA | 0.0172 ± 0.0034
77 | UCCACCUACCAGCUUGCAUAGUAUUUAGUUA | 0.0439 ± 0.0077
78 | UCCUGGAUGAGCUUGCAUAGUAUCUUAGUUA | 0.0202 ± 0.007
79 | UCCUGGAUUAGCUUGCAUAGUAUUUAGUUA | 0.0734 ± 0.015
80 | UCCUGGAACAGCUUGCAUAGUAUUUAGAUA | 0.0172 ± 0.0058

Source: the supplement of paper PMC10338343
